This is one part of the list.
The sequences below were run on PfAP2-HC AP2 domain (GST-tagged) (assay: gcPBM binding intensity (ln(normalized median fluorescence intensity)); higher = stronger DNA binding).
How it was run: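 An Agilent 4 × 180k array carrying primer-extended double-stranded 36-bp intergenic genomic probes and negative controls received GST-tagged P. falciparum DNA-binding domains expressed in E. coli, about 25 μg on average, for 1 h. The binding buffer contained 1× PBS, 1% milk, 0.2 mg/ml BSA, 0.5% salmon testes DNA and 0.03% Triton X-100. Binding intensity is the top Masliner-normalised natural-log median intensity across replicate spots of either probe orientation, read after Alexa488 anti-GST antibody staining and a 488 nm scan.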

Row | Sequence | gcPBM binding intensity (ln)
1 | TCTTTCTTATATTTATATAATTATATTTATTTTATA [GTGCAC_negctrl_site300] | 9.85
2 | GGAATACAGGAAAAAAGTACAGAAAATGGAATATTA [XGTACX_site5053] | 9.62
3 | ATATAATGTTATAGAAGTACATGAAATACTTATTTA [XGTACX_site8850] | 9.58
4 | CATATAAAAAGACACACACACACATATATATATATA [CACACA_site940] | 10.8
5 | TTTTTTTTTCCCGTAAATATTGAGACAACCATAATG [CACACA_negctrl_site41] | 9.28
6 | TATTTTTATTTAGGACGTACAAAAATAAATCATATT [XGTACX_site1448] | 9.32
7 | TTAAAAATATATATAACACACACATAATATATATAT [CACACA_site8811] | 10.5
8 | TATAAATATTACGGTAGTACTATACATATATATAAT [XGTACX_site7442] | 9.71
9 | TTAGAAACATTGAAAGCATGCAATATTACTTTATAC [TGCATGCA_site522] | 9.64
10 | TCCTTATATTTGCACACACACACAAGAAAATGAAAA [CACACA_site6613] | 10.3
11 | TATATAATATAATTGACATGCAACCATTTTCGTGAA [TGCATGCA_site458] | 9.58
12 | TCATTCATATGTTACACACACACACGCACATAAAAA [CACACA_site7514] | 10.7
13 | AAGTTGGAAAGGTTATGTACTTATTTTTTAAAATAA [XGTACX_site204] | 9.48
14 | ATAAAAAACTCAGAGCGTACATAATTTTTTCTATTT [XGTACX_site2803] | 9.72
15 | TAACCATACATACATACACACACACCCACATATATA [CACACA_site8951] | 10.3
16 | TATATATTCAAATGTGCATGTAAAAAAAAAAAAAAG [TGCATGCA_site126] | 9.63
17 | CAGGAGAGTAAAAGAGTGCGAATTATTATTTTGGAG | 9.48
18 | GGCATATATATATGCACACATACATAAATACATGTG [CACACA_site5999] | 10.2
19 | TCCCTAGTATACCTTAGTACATATATTATTTTGCAC [XGTACX_site2174] | 9.82
20 | AGACATTAATGAAGGTGTACATATATTTGACAGAAT [XGTACX_site655] | 9.94
21 | ATAATATATATATATACGCACACTTATGTACGGATT [CACACA_site2120] | 9.8
22 | TTCTATATAATTCAAACATGCACAGGAAATATTATA [TGCATGCA_site290] | 9.68

Row | Sequence | gcPBM binding intensity (ln)
23 | AACAATGTTTTCTTGTGTACACATCATTAAAGAAAA [XGTACX_site4726] | 9.56
24 | AAGAAAAAAGGGGACAAGGCATATCTATATATACAT [TGCATGCA_negctrl_site172] | 9.77
25 | TATGTAACACATACTTGTACATATATAATTTTTTTA [XGTACX_site6251] | 9.65
26 | ATACATATATATATATGTACATATGCACATATATAC [XGTACX_site7209] | 9.69
27 | TCTTTTGCCCAAAAAGGTACACACCACAATTTAAAT [XGTACX_site1482] | 9.59
28 | TATTGTATGGTAGGATATGATGTTATTTGTTATAAT [CACACA_negctrl_site202] | 9.9
29 | ATATATATATCACGCACACACGAATTTTAAATATAT [CACACA_site5691] | 10.4
30 | TTATTTTTACAATTTTAATAATAATACTAAAACAAA [XGTACX_negctrl_site538] | 9.2
31 | AATATATTATAATATACACACATATATGCTCTTTAA [CACACA_site4131] | 9.95
32 | ATATATTATATATATTTTAAGTAATTTGCAAAAAAT [GTGCAC_negctrl_site361] | 9.28
33 | ATTTAAAAGAAATAATGTACGAATCATATTTGATAT [XGTACX_site1785] | 9.61
34 | ATAAGAAAAGGACACACACACAAAAAAAAAAAAAAA [CACACA_site7351] | 11.1
35 | TGTTCTTATTTTATAAGCATATAATTAATCATAATG [CACACA_negctrl_site1493] | 9.52
36 | ATGTATATAATATTATGTACATATATGAAATATTTT [XGTACX_site8168] | 9.78
37 | TTTATTTATTATTGTTGTACACTTTTTATAAAAAAA [XGTACX_site5114] | 9.51
38 | TAGTTTTTTATAAAATTATTTATATAAAGGTAAAAA [CACACA_negctrl_site490] | 9.2
39 | TTCCCTAATATTTGTTGTACTTGTTATATTTTTTTT [XGTACX_site5994] | 9.9
40 | TATATTTGTAAGAAGAGTACTAAAAAAAGAATAAAG [XGTACX_site8704] | 9.69
41 | ATATATATATATATATGTACGTACTCAGTTATGCCT [XGTACX_site453] | 9.73
42 | ATAGTATCTGGTAGCTGTACGAGTCGTAGAGTGCAG [XGTACX_site2020] | 9.68
43 | ATTTATTAACCATATACACACATATATTTGTATTTA [CACACA_site6744] | 9.84
44 | GTGTATATATGTTATACACACAAAAATATTTTGTAT [CACACA_site265] | 9.79

Reference: the supplement of paper PMC11417369
